Data on 3 molecules can be found in patent US20130195871A1 (AbbVie / Abbott, published 2013).

One assay concerns the target T1, Recombinant Human IGF1R (human, UniProt P08069 31-932).
T1 construct: bought reagent
Description: SPR (Biacore), N-terminal VD.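 Further: capture of antibodies or DVD-Ig proteins on an anti-mouse IgG chip surface, recombinant antigen injected at 10–200 nM in HBS-EP running buffer at 25 °C.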

In a further assay the target is T2, EGFR on the cell surface (human, UniProt P00533).
T2 construct: whole, on cells
Description: flow cytometry on cells, 2 ug/mL, C-terminal VD.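 Further: cells stained for 30 to 60 min on ice.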

The target in assay [1] is T3, Recombinant Human MSP Receptor ECD-His tag (human, UniProt Q04912 25-957).
T3 construct: extracellular domain; bought reagent; also called RON
Description: SPR (Biacore), N-terminal VD.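 Further: capture of antibodies or DVD-Ig proteins on an anti-mouse IgG chip surface, recombinant antigen injected at 10–200 nM in HBS-EP running buffer at 25 °C.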

B1: DVD2286 (bispecific antibody)
VH: EVQLVQSGAEVKKPGSSVKVSCKASGGTFSSYAISWVRQAPGQGLEWMGGIIPIFGTANYAQKFQGRVTITADKSTSTAYMELSSLRSEDTAVYYCARAPLRFLEWSTQDHYYYYYMDVWGKGTTVTVSSASTKGP[about 120 residues left out]
VL: SSELTQDPAVSVALGQTVRITCQGDSLRSYYATWYQQKPGQAPILVIYGENKRPSGIPDRFSGSSSGNTASLTITGAQAEDEADYYCKSRDGSGQHLVFGGGTKLTVLGQPKAAP[about 100 residues left out]
notes: DVD-Ig, outer AB075 / inner AB004
Take B1: in the assay with Recombinant Human IGF1R, the equilibrium dissociation constant (Kd) was 11 nM, the koff came to 0.00025 s⁻¹ and the kon was 22000 M⁻¹ s⁻¹.

B2: DVD2301 (bispecific antibody)
VH: [about 120 residues left out]ASTKGPEVQLVESGGGLVQPGGSLRLSCAASGFSLTNYGVHWVRQAPGKGLEWLGVGWSGGNTDYNTPFTSRLTINKDNSKNTVYLQMNSLRAEDTAVYYCARALTWYDYEFAYWGQGTLVTVSS
VL: [about 100 residues left out]RTVAAPDILLTQSPGTLSLSPGERATLSCRASQSIYTNIHWYQQKPGQAPRLLIKYASESISGIPDRFSGSGSGTDFTLTISRLEPEDFAVYYCQQNLNWPTTFGQGTKLEIK
notes: DVD-Ig, outer AB004 / inner AB400
As to B2, the “GEO MEAN” value with EGFR on the cell surface amounted to 210.

B3: DVD2311 (bispecific antibody)
VH: QVQLQESGPGLVKPSEILSLTCTVSGGSISSHYWSWVRQPPGKGLEWIGYIYYSGSTNYNPSLKSRVTISVDTSKNQFSLNLSSVTAADTAVYYCARIPNYYDRSGYYPGYWYFDLWGRGTLVTVSSASTKGP[about 120 residues left out]
VL: QAVLTQPSSLSAPPGASASLTCTLRSGFNVDSYRISWYQQKPGSPPQYLLRYKSDSDKQQGSGVPSRFSGSKDASANAGILLISGLQSEDEADYYCMIWHSSAWVFGGGTKLTVLRQPKAAP[about 100 residues left out]
notes: DVD-Ig, outer AB034 / inner AB004
On to B3, for which, in assay [1], the Kd turned out to be 23 nM.
